# From PubChem BioAssay AID504332 (National Center for Advancing Translational Sciences (NCATS), 2011)
# “And” between values parts separate entries of the source, which are not always exact repeats. Identical values can stand only once. Among all 350,000 compounds or so, about 31,000 (8.9%) were called active. The inconclusive results got no clear call from the source; some entries with a clear call stand among them for comparison. Calls come from the whole dose curve; as a rule, active = well fitted inhibition curve with a large enough effect; inconclusive = small, poorly fitted or top-dose-only effect; inactive = no such curve, though single readings can be large or run the other way. Potencies of inconclusive entries are doubtful fits and often do not repeat.
# Biological target: Histone-lysine N-methyltransferase EHMT2 (Homo sapiens) (UniProt Q96KQ7)
# Test: qHTS Assay for Inhibitors of Histone Lysine Methyltransferase G9a; note: nearly all actives have a fitted effect of over 75% in size
# Conditions: G9a H3K9 monomethylation, AlphaScreen, 2 h; activity, negative = inhibition: at 59 µM (top of the series) unless noted
# How it was run: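 Quantitative HTS format: methyltransferase activity on a biotin-tagged H3K9 peptide is measured by AlphaScreen, using a rabbit anti-monomethyl-H3K9 antibody with streptavidin donor and anti-IgG acceptor beads. Final levels are 20 nM enzyme, 500 nM peptide, 20 uM SAM; 2 h RT.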
# % is set by controls: 0 for no effect and ±100 for the full control effect; potency is the fitted concentration of half-maximal effect; tags give direction and shape of the fitted curve.
# UniProt Q96KQ7, sequence (Q96KQ7 whole entry, looked up): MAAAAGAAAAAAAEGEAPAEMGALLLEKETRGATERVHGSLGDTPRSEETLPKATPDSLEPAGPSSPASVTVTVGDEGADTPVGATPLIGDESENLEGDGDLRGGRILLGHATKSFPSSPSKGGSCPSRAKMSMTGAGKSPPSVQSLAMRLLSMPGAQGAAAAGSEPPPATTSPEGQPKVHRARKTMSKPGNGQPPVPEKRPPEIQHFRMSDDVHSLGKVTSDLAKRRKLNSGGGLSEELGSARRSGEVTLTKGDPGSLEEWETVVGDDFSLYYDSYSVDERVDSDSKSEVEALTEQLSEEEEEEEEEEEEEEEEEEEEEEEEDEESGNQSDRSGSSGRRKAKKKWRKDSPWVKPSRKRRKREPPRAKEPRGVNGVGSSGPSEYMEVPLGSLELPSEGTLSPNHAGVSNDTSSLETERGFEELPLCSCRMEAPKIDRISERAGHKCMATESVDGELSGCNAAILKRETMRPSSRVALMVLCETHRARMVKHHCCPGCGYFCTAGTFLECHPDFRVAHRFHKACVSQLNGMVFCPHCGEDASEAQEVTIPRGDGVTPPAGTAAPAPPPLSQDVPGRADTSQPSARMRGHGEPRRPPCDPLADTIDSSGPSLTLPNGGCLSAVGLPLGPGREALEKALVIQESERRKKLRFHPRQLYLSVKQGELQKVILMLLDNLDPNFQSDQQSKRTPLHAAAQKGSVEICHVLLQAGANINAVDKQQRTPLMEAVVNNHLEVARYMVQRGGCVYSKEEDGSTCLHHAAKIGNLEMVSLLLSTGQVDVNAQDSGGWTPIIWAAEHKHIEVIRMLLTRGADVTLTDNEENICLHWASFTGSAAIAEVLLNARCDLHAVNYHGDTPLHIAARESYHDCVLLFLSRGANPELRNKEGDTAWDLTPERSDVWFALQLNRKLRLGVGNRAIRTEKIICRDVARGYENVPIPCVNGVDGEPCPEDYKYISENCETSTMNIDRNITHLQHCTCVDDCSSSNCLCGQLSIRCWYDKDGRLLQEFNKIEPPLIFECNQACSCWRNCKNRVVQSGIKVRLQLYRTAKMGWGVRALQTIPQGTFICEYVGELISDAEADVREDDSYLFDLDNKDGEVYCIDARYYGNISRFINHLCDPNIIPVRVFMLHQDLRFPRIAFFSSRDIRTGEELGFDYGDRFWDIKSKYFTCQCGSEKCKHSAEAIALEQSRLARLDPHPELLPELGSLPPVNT
SMILES,Potency,"activity, negative = inhibition"
O=C(NCc1ccco1)C(=O)c1cn(CC(=O)N2CCCCC2)c2ccccc12,"inconclusive: 44.7 µM [inhibitor, partial curve, poor fit]",
CC1CCN(C(=O)c2ccc(-c3ccccc3Cl)o2)CC1,active: 39.8 µM,
CCOc1ccc(S(=O)(=O)N2CCOCC2)cc1NC(=O)C1=COCCO1,inactive,
Cc1ccc(CNC(=O)c2cc3c(=O)n(Cc4cccnc4)ccc3nc2C)cc1,inactive,
COc1ccc(C(=O)COC(=O)CNC(=O)c2ccccc2)cc1F,"inconclusive: 39.8 µM [inhibitor, single point]",
CCOc1cccc(C2c3c(-c4cc(C)ccc4O)n[nH]c3C(=O)N2Cc2ccco2)c1 (stereo not given),"inconclusive: 10 µM [inhibitor, partial curve, poor fit]",
O=C(Nc1ccccc1)c1ccc(Br)o1,"inconclusive: 70.8 µM [inhibitor, single point] and inconclusive: 35.5 µM [inhibitor, single point]",
CC(=O)Nc1ccc(C(=O)Cn2c3[n+](c4c(F)c(F)ccc42)CCCCC3)cc1,inactive,
Cc1cccc(N=C2NC(=O)/C(=C/c3cccn3C)S2)c1C,"inconclusive: 39.8 µM [inhibitor, partial curve, poor fit]",
Fc1cccc(CSc2nc3ccncc3[nH]2)c1,"inconclusive: 89.1 µM [inhibitor, single point]",
COC(=O)c1ccc(CSc2nncn2N)cc1,inactive,
Cc1ccc(-c2cc(C(F)(F)F)c(C#N)c(SCC(=O)Nc3ccccc3)n2)cc1,inactive,
CCOc1cc(CNCc2ccccn2)ccc1OCC(=O)NC(C)(C)C,"inconclusive: 39.8 µM [inhibitor, single point]",
Cc1cc(C)cc(NC(=S)/C(=C(\[O-])c2ccc(Cl)cc2Cl)[n+]2ccccc2)c1,"inconclusive: 50.1 µM [inhibitor, partial curve, poor fit]",
O=C(COc1ccc(Cl)cc1Cl)NNC(=S)NC(=O)c1ccco1,active: 7.94 µM,
Cc1cc(NC(=O)c2c(F)c(F)c(F)c(F)c2F)no1,"inconclusive: 6.31 µM [inhibitor, single point]",
CC(C)(C)c1ccc(C(=O)NNc2ccc(F)cc2F)cc1,active: 22.4 µM,
O=C(COC(=O)c1cc(S(=O)(=O)N2CCOCC2)ccc1Cl)NCc1ccco1,,inactive: 7.18% [at 0.501 µM]
COc1ccc(-c2nnc(SC(C)C(=O)Nc3nccs3)n2-c2ccccc2)cc1OC (stereo not given),,inconclusive: -68.7% [inhibitor]
CCOC(=O)N1CCN(C(=O)/C(=C/c2ccc(N(C)C)cc2)NC(=O)c2ccccc2)CC1,,inactive: -15.5% [at 12.7 µM]
O=c1c2ccccc2[nH]c(=S)n1CCN1CCc2ccccc2C1,"inconclusive: 50.1 µM [inhibitor, partial curve]",
Cc1nc(NCCN2CCOCC2)c2oc3ccccc3c2n1,inactive,
CSc1nnc(C)c(=O)n1COC(=O)COc1ccc(Cl)cc1Cl,"inconclusive: 89.1 µM [inhibitor, single point]",
Cc1ccc2sc(N3CCN(C(=O)C4=COCCO4)CC3)nc2c1C,"inconclusive: 89.1 µM [inhibitor, partial curve, poor fit]",

SMILES,Potency,"activity, negative = inhibition"
COc1cc(/C=N/NC(=O)c2cc(C)n(-c3ccc(F)cc3)c2C)cc(OC)c1O,"inconclusive: 7.94 µM [inhibitor, partial curve, poor fit]",
Cc1cccc(Cc2c(C)nc3nc(SCC(=O)O)nn3c2C)c1,"inconclusive: 25.1 µM [inhibitor, partial curve, poor fit]",
O=C1/C(=C/c2ccc([N+](=O)[O-])cc2)C=C(c2ccccc2)N1c1ccccc1,"inconclusive: 25.1 µM [inhibitor, full curve]",
O=C1NC2(CCCc3ccccc32)C(=O)N1CCOc1ccc(Br)cc1 (stereo not given),"inconclusive: 20 µM [inhibitor, single point]",
CCOC(=O)c1cnc(-n2nc(C)cc2C)nc1N1CCOCC1,active: 79.4 µM,
NC(=O)c1nnsc1Sc1c(C(N)=O)nnn1-c1cccc(N)c1,"inconclusive: 89.1 µM [inhibitor, single point]",
O=C(COC(=O)c1cnccn1)Nc1ccc(Cl)cn1,"inconclusive: 79.4 µM [inhibitor, partial curve, poor fit]",
COc1cc(OC)cc(C(=O)Nc2nc(CC(=O)NC(C)c3ccccc3)cs2)c1 (stereo not given),"inconclusive: 79.4 µM [inhibitor, partial curve, poor fit]",
Cc1nnsc1-c1nc2ccccc2[nH]1,active: 28.2 µM,
O=C(O)CCc1ccc(-c2ccccc2)n1NC(=O)c1ccco1,,inconclusive: -52.5% [inhibitor]
O=C(C1CCN(Cc2cccs2)CC1)N1CCN(Cc2ccc3c(c2)OCO3)CC1,active: 2.51 µM,
CSc1ccc(C(=S)N2CCN(CCO)CC2)cc1,active: 10 µM,
O=C(O)CSc1cc(NS(=O)(=O)c2ccc(Br)cc2)c2ccccc2c1O,active: 1.78 µM,
CCOc1ccccc1NC(=S)N1CCN(c2ccc(OC)cc2)CC1,"inconclusive: 89.1 µM [inhibitor, single point]",
CCCCCCSc1nsc(NC(=O)CC(C)C)n1,"inconclusive: 100 µM [inhibitor, single point]",
Cc1ccc(C)c(-c2cc(C(=O)NCc3cccs3)c3ccccc3n2)c1,,inactive: 42.6% [at 12.7 µM]
O=C(O)c1cc(NCc2ccccc2C(F)(F)F)ccc1N1CCOCC1,"inconclusive: 56.2 µM [inhibitor, partial curve, poor fit]",
Cc1ccccc1OC(=O)CSc1nnc(-c2ccc(F)cc2)o1,inactive,
O=C(COc1ccc2ccccc2c1)NCCNC(=O)COc1ccc2ccccc2c1,"inconclusive: 89.1 µM [inhibitor, single point]",
CN(C)/C(Cn1cncn1)=C1/N=C(c2c(F)cccc2F)OC1=O,"inconclusive: 89.1 µM [inhibitor, partial curve, poor fit]",
CCOC(=O)c1c(C)[nH]c(C(=O)CN2CCOCC2)c1C,"inconclusive: 17.8 µM [inhibitor, partial curve, poor fit]",
CCCOC(=O)CSC1=C(C#N)C(c2ccccc2OCC)C(C#N)C(=O)N1 (stereo not given),"inconclusive: 31.6 µM [inhibitor, single point]",
CCn1c(SCC(=O)Nc2oc(-c3ccccc3)c(-c3ccccc3)c2C#N)nnc1-c1ccco1,,inconclusive: -84.8% [inhibitor]
O=C(CCN1CCN(c2ccccc2)CC1)Nc1cccc(Br)c1,"inconclusive: 70.8 µM [inhibitor, single point]",

SMILES,Potency,"activity, negative = inhibition"
N#Cc1cccc(NC(=O)C2CCN(S(=O)(=O)c3ccc4[nH]c(=O)ccc4c3)CC2)c1,inactive,
COc1ccc2nc(NC(=O)c3cccc(-c4cc5ccccc5oc4=O)c3)sc2c1,"inconclusive: 10 µM [inhibitor, partial curve, poor fit]",
CCOC(=O)CCC(NC(=O)CC(=O)NC(CCC(=O)OCC)C(=O)OCC)C(=O)OCC (stereo not given),active: 70.8 µM,
Cc1noc(C)c1COc1ccc(C(=O)OCC(=O)N2c3ccccc3NC(=O)C2(C)C)cc1,"inconclusive: 22.4 µM [inhibitor, single point]",
NC(=O)C1CCN(C(=O)CN(C2CCCCC2)S(=O)(=O)c2ccc(F)cc2)CC1,inactive,
O=C(COC(=O)c1ccc(O)cc1)Nc1ccccc1[N+](=O)[O-],"inconclusive: 50.1 µM [inhibitor, partial curve, poor fit]",
CO[C@@]1(NC(=O)C2SC(=C(C(N)=O)C(=O)O)S2)C(=O)N2C(C(=O)O)=C(CSc3nnnn3C)CS[C@@H]21 (stereo not given in full),active: 15.8 µM,
CC#CCc1cc2ccccc2c(=O)o1,"inconclusive: 6.31 µM [inhibitor, single point]",
O=[N+]([O-])c1ccc2c(c1)nc1n2CCN(C2CCCCC2)C1,,inactive: 4.28% [at 12.7 µM]
Nc1nnc(-c2cccnc2)s1,"inconclusive: 1.26 µM [inhibitor, full curve, poor fit]",
CCOc1ccc(N2C(=O)CSC2=NC#N)cc1,,inactive: -16.5% [at 12.7 µM]
O=C(c1ccc(CSc2nc3ccncc3[nH]2)cc1)N1CCCCC1,active: 25.1 µM,
COc1ccc(-c2cn[nH]c2N)cc1,"inconclusive: 39.8 µM [inhibitor, single point]",
O=[N+]([O-])c1ccc(Cc2nnc(-c3ccccc3Cl)o2)cc1,"inconclusive: 39.8 µM [inhibitor, partial curve, poor fit]",
CCC(=O)N1N=C(c2ccc(C)o2)CC1c1ccc(Br)cc1 (stereo not given),"inconclusive: 22.4 µM [inhibitor, single point]",
CC(/C=C/c1ccccc1)=N\Nc1ccccc1[N+](=O)[O-],active: 0.891 µM,
CCOC(=O)CCSCC(=O)Nc1nnc(C)s1,inactive,
COc1ccc(N2CCN(C(=O)c3ccc(S(=O)(=O)N4CCCC4)cc3)CC2)cc1,active: 79.4 µM,
CCC(CC)c1nnc(NC(=O)Cc2ccccc2[N+](=O)[O-])s1,active: 39.8 µM,
CCCCOc1ccc(C(=O)NCC2(c3ccc(OC)cc3)CCOCC2)cc1,"inconclusive: 7.94 µM [inhibitor, full curve, poor fit]",
Cc1c(C(=N)C(C#N)C#N)c(=N)oc2c1ccc1ccccc12,"inconclusive: 44.7 µM [inhibitor, partial curve]",
CC(=O)N1CCN(CC(=O)Nc2ccccc2C(=O)NCc2ccc(C)cc2)CC1,"inconclusive: 63.1 µM [inhibitor, partial curve, poor fit]",
